# According to the RNAGym collection of RNA variant scans (doi:10.1093/nar/gkz1192):
# The source gives no read counts; variants with many changes may rest on few reads.
# B1: CPEB3 Ribozyme (parent)
# chain: UAACAGGGGGCCACAGCAGAAGCGUUCACGUCGCAGCCCCUGUCAGAUUCUGGUGAAUCUGCGAAUUCUGCUGUAUAUCUC
# Variants of: B1
# Test: self-cleavage, relative activity (ratio to wild type); higher = more cleavage; in vitro, sequencing
# In short: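 CPEB3 self-cleaving ribozyme mutant libraries were made by rounds of error-prone PCR, barcoded, and transcribed in vitro with T7 RNA polymerase for 5 hours at 37°C. Cleavage occurred during transcription and a 15 min DNase I step before EDTA stop. RNAs were reverse transcribed with template switching and Illumina-sequenced, with DNA sequencing mapping barcodes to variants. Relative activity is the variant's cleaved/total read fraction divided by wild type's (minimum 5 reads), averaged across three batches.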
row,Variant,self-cleavage
1,A28G A47U U60A U69C U78C,0.11
2,A28G A56G A77U,0.46
3,A28G A56G C59A U60C,0.07
4,A28G A56U U58A,0.19
5,A28G A56U U78C,0.14
6,A28G A57G U72A,0.16
7,A28G A57G U80C,0.32
8,A28G A57U C62G C79U,0.09
9,A28G A57U U60C A64U,0.11
10,A28G A64G U72G U80C,0.43
11,A28G A64G U76C,0.51
12,A28G A64U A65C,0.14
13,A28G A64U U67A U78C,0.13
14,A28G A65G C81A,0.35
15,A28G A65U U67C U69A,0.45
16,A28G C29A C37U A64G,0.15
17,A28G C29U U49C,0.45
18,A28G C29U U58A U78A,0.11
19,A28G C29U U67C,0.05
20,A28G C32A A47G G63A U69C,0.09
21,A28G C32A A64G U66C,0.17
22,A28G C32U A64G,0.19
23,A28G C34A U60A A65G,0.07
24,A28G C34G U48C U54C,0.24

row,Variant,self-cleavage
1,A28G C34U U78C,0.23
2,A28G C37U U48C A56G,0.09
3,A28G C38A U69C U78C,0.14
4,A28G C38U A56G U69C C81A,0.19
5,A28G C38U U43A A56G U76G A77G,0.06
6,A28G C38U U43C A56G U76G A77C,0.04
7,A28G C38U U69C A77G U78C,0.37
8,A28G C39A U43C A45U A56G,0.47
9,A28G C39A U43C A56G,0.14
10,A28G C39A U51A U66C G70A U72A,0.48
11,A28G C39G U51A U66C G70A,0.32
12,A28G C40A A47U U49C,0.25
13,A28G C40A U54C,0.08
14,A28G C44A A45U A64U U69A,0.18
15,A28G C44A A56U U67A A75G,0.12
16,A28G C44U A47U U72C,0.18
17,A28G G30A A35U U49C U67C,0.07
18,A28G G30A A65U,0.18
19,A28G G30A C68U,0.13
20,A28G G30A G52U A64U U76C,0.14
21,A28G G30A U69A U72C,0.13
22,A28G G33A A47G U51C A57G,0.07
23,A28G G33C A35G U66C,0.15
24,A28G G36A U41A U43A A57U,0.14

row,Variant,self-cleavage
1,A28G G36C G52U A57G A65C,0.12
2,A28G G36C U43A A64G U74C,0.07
3,A28G G42A A45G U51C,0.15
4,A28G G42A A64G,0.1
5,A28G G42A U48A,0.23
6,A28G G42A U48A A57G,0
7,A28G G42A U69C,0.15
8,A28G G42U U43A U48C,0.21
9,A28G G55A U69A U72C,0.23
10,A28G G55U U72C,0.64
11,A28G G63A U69A A77G U80A,0.21
12,A28G G73A A77G,1.41
13,A28G U31A A35G U41C A45U A57G,0.15
14,A28G U31A A57G,0.33
15,A28G U31A A64G U78C,0.26
16,A28G U31A A77G,0.27
17,A28G U31A C34G A56U U67C,0.06
18,A28G U31A C37U U49C U51A A64G,0.06
19,A28G U31A C39A A57G,0.11
20,A28G U31A U49C,0.27
21,A28G U31C A35G A64G,0.99
22,A28G U31C A35G A75G U78C,1.05
23,A28G U31C A45G A75U U80C,0.27
24,A28G U31C G33A U43C,0.31

row,Variant,self-cleavage
1,A28G U31C U41C C62U A64U,0.11
2,A28G U31C U49C A64G U76A,0.11
3,A28G U31C U67A U78G,0.08
4,A28G U31G A35U,0.25
5,A28G U41A A45G,0.15
6,A28G U41A A45G C62A U67C,0.05
7,A28G U41A A45U U60C U67C,0.11
8,A28G U41A U48C U67C U72G,0.1
9,A28G U41A U49C U69A,0.05
10,A28G U41A U58C,0.24
11,A28G U41A U78A,0.13
12,A28G U41A U80C,0.3
13,A28G U41C A47G A65G,0.32
14,A28G U41C A77G,0.56
15,A28G U41C U43C U51A A56U U58C U67A,0.07
16,A28G U41C U51A A64G,0.47
17,A28G U41C U58C U66C,0.36
18,A28G U41C U66C U67A,0.13
19,A28G U41G G46A U49C A64G A75C,0.29
20,A28G U43A U51A A64U U69C,0.15
21,A28G U43C A45G U48C,0.15
22,A28G U43C A56C,0.4
23,A28G U43C C44U U49C U60C,0.21
24,A28G U43C U60C C81U,0.27

row,Variant,self-cleavage
1,A28G U43C U66C U69C,0.16
2,A28G U43C U67C U80C,0.1
3,A28G U43G G53C U72C,0.33
4,A28G U48A U58A U66C,0.1
5,A28G U48C U51C A56U A64G,0.2
6,A28G U48C U51C U60A G63A,0.12
7,A28G U48C U54G,0.14
8,A28G U49A A56G U80A,0.29
9,A28G U49A U54C G55C U72G,0.19
10,A28G U49C U54C,0.15
11,A28G U49C U60A U69A U74C,0.07
12,A28G U49C U66C U74C,0.11
13,A28G U49C U80A,0.51
14,A28G U51A G53A,0.75
15,A28G U51C A56G U78A,0.33
16,A28G U51C A57G,0.54
17,A28G U51C G52C C62U,0.25
18,A28G U51C U58C C59U,0.2
19,A28G U51C U67C,0.16
20,A28G U54A A56U,0.15
21,A28G U54C A64G U66G C79G,0.11
22,A28G U54C U60C,0.16
23,A28G U60A A77G,0.19
24,A28G U60C U67C G70A,0.16

row,Variant,self-cleavage
1,A28G U66A A75U,0.32
2,A28G U66C U67G,0.18
3,A28G U66C U69C,0.48
4,A28G U66C U72A U78A,0.15
5,A28G U66C U72C,0.18
6,A28G U66C U72C U76C A77G,0.21
7,A28G U66C U74G A75G,0.13
8,A28G U66G G70A U78C,0.14
9,A28G U67C U74C,0.25
10,A28G U67C U80A,0.11
11,A28G U67G U69C U72C,0.2
12,A28G U69A G73C A75U,0.33
13,A28G U74A U80C,1.19
14,A28G U74C U78A,0.94
15,A28G U76C A77G,0.56
16,A28U A35G G53U A56G U58C U69A,0.43
17,A28U A35G U54A U72A,1.16
18,A28U A35U A65U U76C U80C,0.07
19,A28U A35U U69A U80A,0.18
20,A28U A45G U51C C59A,0.23
21,A28U A45U A47U U54C U76C U78C,0.13
22,A28U A45U C79U,0.38
23,A28U A47G G63U,0.78
24,A28U A56G A57U A77G,0.17

row,Variant,self-cleavage
1,A28U A64G C79U,0.75
2,A28U A64U A65G,0.2
3,A28U A64U C68A U69C A75G,0.14
4,A28U C32G A64G U69C A77C,0.04
5,A28U C37U U43C,0.11
6,A28U C38U A47G U49C U58C U66C,0.09
7,A28U C40A A47G U51C A64G U66C U78A,0.06
8,A28U C40A U51C C59U U60C U74A,0.02
9,A28U C40G U76C U80C,0.11
10,A28U G30U U49C U60A G70C U74A,0.1
11,A28U G33A U54A A75G,0.05
12,A28U G33C A35G,0.2
13,A28U G33U A64U,0.21
14,A28U G33U U74C,0.13
15,A28U G36A C37U A56G,0.13
16,A28U G46A U48C,0.44
17,A28U G46A U69C,0.14
18,A28U G53A A56U U80C,0.4
19,A28U G63C U80C,0.83
20,A28U U31A G46A U69C,0.1
21,A28U U31A U43A U48C A57G,0.24
22,A28U U31C A56U U78C,0.19
23,A28U U31C C38G,0.11
